Reference: the supplement of paper PMC4967469

Experiments:
Assay in all cases: Viability of human cancer cell lines after 72 h of drug (GDSC screen)
EX-527 = compound: NC(=O)C1CCCc2c1[nH]c1ccc(Cl)cc21 [EX-527]; conditions: top dose 20 µM
Method: (§1)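 Human cancer cell lines in 384-well plates, medium with 10% serum, drug for 72 h over a 256-fold dose range (nine 2-fold or five 4-fold steps up to the top dose). Adherent lines were fixed and stained with the nucleic acid dye Syto60, suspension lines read with resazurin; signal relative to control wells, capped at 0 and 100%. One two-parameter sigmoid per drug and line, fitted in a mixed model over all curves with the slope shared within a line.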

AZD6244 = compound: Cn1cnc2c(F)c(Nc3ccc(Br)cc3Cl)c(C(=O)NOCCO)cc21 [AZD6244]; conditions: top dose 4 µM; screen: GDSC drug entry 1498; top dose inferred
Method: as §1

AS601245 = compound: N#CC(c1ccnc(NCCc2cccnc2)n1)c1nc2ccccc2s1 [AS601245]; conditions: top dose 8 µM; top dose inferred
Method: as §1

YM201636 = compound: Nc1ccc(C(=O)Nc2cccc(-c3nc(N4CCOCC4)c4oc5ncccc5c4n3)c2)cn1 [YM201636]; conditions: top dose 5.12 µM; top dose inferred
Method: as §1

Row | Cell Line | AUC (EX-527) | IC50 (EX-527) [µM] | AUC (AZD6244) | IC50 (AZD6244) [µM] | AUC (AS601245) | IC50 (AS601245) [µM] | AUC (YM201636) | IC50 (YM201636) [µM]
1 | HCC1143 (breast, adherent) | 0.978 | > 20 | 0.78 | 2.37 | 0.789 | 5.22 | 0.896 | > 5.12
2 | HCC1395 (breast, adherent) | 0.984 | > 20 | 0.91 | > 4 | 0.904 | > 8 | 0.894 | > 5.12
3 | HCC1419 (breast, adherent) | 0.982 | > 20 | 0.957 | > 4 | 0.911 | > 8 | 0.902 | > 5.12
4 | HCC1428 (breast, adherent) | 0.988 | > 20 | 0.901 | > 4 | 0.908 | > 8 | 0.98 | > 5.12
5 | HCC1569 (breast, adherent) | 0.978 | > 20 | 0.969 | > 4 | 0.684 | 1.96 | 0.86 | > 5.12
6 | HCC1806 (breast, adherent) | 0.983 | > 20 | 0.953 | > 4 | 0.649 | 1.24 | 0.948 | > 5.12
7 | HCC1937 (breast, adherent) | 0.985 | > 20 | 0.939 | > 4 | 0.804 | 4.77 | 0.795 | 2.81
8 | HCC1954 (breast, adherent) | 0.983 | > 20 | 0.932 | > 4 | 0.83 | 6.18 | 0.97 | > 5.12
9 | HCC-15 (lung squamous cell carcinoma, adherent) | 0.977 | > 20 | 0.46 | 0.188 | 0.882 | > 8 | 0.965 | > 5.12
10 | HCC-44 (lung adenocarcinoma, adherent) | 0.969 | > 20 | 0.831 | 2.46 | 0.854 | 6.08 | 0.879 | 5.07
11 | HCC-56 (large intestine, adherent) | 0.987 | > 20 | 0.567 | 0.384 | 0.835 | 5.45 | 0.823 | 3.11
12 | HCC-78 (lung adenocarcinoma, adherent) | 0.968 | > 20 | 0.89 | > 4 | 0.937 | > 8 | 0.896 | > 5.12
13 | HCC-827 (lung adenocarcinoma, adherent) | 0.981 | > 20 | 0.94 | > 4 | 0.713 | 2.21 | 0.975 | > 5.12
14 | HCE-4 (oesophagus, adherent) | 0.984 | > 20 | 0.931 | > 4 | 0.864 | 5.39 | 0.992 | > 5.12
15 | HCT-15 (large intestine, adherent) | 0.979 | > 20 | 0.962 | > 4 | 0.822 | 5.06 | 0.921 | > 5.12
16 | HDQ-P1 (breast, adherent) | 0.975 | > 20 | 0.9 | > 4 | 0.849 | 7.86 | 0.94 | > 5.12
17 | HEC-1 (endometrium, adherent) | 0.989 | > 20 | 0.962 | > 4 | 0.908 | > 8 | 0.977 | > 5.12
18 | HGC-27 (stomach, adherent) | 0.982 | > 20 | 0.989 | > 4 | 0.762 | 2.46 | 0.741 | 1.37
19 | HLE (liver, adherent) | 0.959 | > 20 | 0.927 | > 4 | 0.764 | 2.74 | 0.84 | 3.24
20 | HMV-II (melanoma, adherent) | 0.974 | > 20 | 0.458 | 0.188 | 0.544 | 0.677 | 0.878 | > 5.12
21 | HN (head and neck, adherent) | 0.989 | > 20 | 0.709 | 0.929 | 0.989 | > 8 | 0.989 | > 5.12

Row | Cell Line | AUC (EX-527) | IC50 (EX-527) [µM] | AUC (AZD6244) | IC50 (AZD6244) [µM] | AUC (AS601245) | IC50 (AS601245) [µM] | AUC (YM201636) | IC50 (YM201636) [µM]
22 | HO-1-N-1 (head and neck, adherent) | 0.988 | > 20 | 0.634 | 0.566 | 0.866 | 6.2 | 0.968 | > 5.12
23 | HO-1-u-1 (head and neck, adherent) | 0.988 | > 20 | 0.952 | > 4 | 0.863 | 6.43 | 0.911 | > 5.12
24 | HOP-92 (large cell lung carcinoma, adherent) | 0.978 | > 20 | 0.853 | 3.91 | 0.895 | > 8 | 0.984 | > 5.12
25 | HOS (osteosarcoma, adherent) | 0.988 | > 20 | 0.95 | > 4 | 0.823 | 3.73 | 0.988 | > 5.12
26 | HPAC (pancreas, adherent) | 0.979 | > 20 | 0.905 | > 4 | 0.88 | > 8 | 0.942 | > 5.12
27 | HPAF-II (pancreas, adherent) | 0.979 | > 20 | 0.725 | 1.35 | 0.942 | > 8 | 0.947 | > 5.12
28 | HSC-2 (head and neck, adherent) | 0.989 | > 20 | 0.981 | > 4 | 0.861 | 5.93 | 0.982 | > 5.12
29 | HSC-3 (head and neck, adherent) | 0.989 | > 20 | 0.587 | 0.418 | 0.901 | 7.75 | 0.979 | > 5.12
30 | HT55 (large intestine, adherent) | 0.99 | > 20 | 0.81 | 2.1 | 0.92 | > 8 | 0.979 | > 5.12
31 | HT-3 (cervix, adherent) | 0.987 | > 20 | 0.882 | > 4 | 0.917 | > 8 | 0.934 | > 5.12
32 | HT-29 (large intestine, adherent) | 0.986 | > 20 | 0.423 | 0.154 | 0.837 | 5.36 | 0.945 | > 5.12
33 | HT-115 (large intestine, adherent) | 0.977 | > 20 | 0.929 | > 4 | 0.948 | > 8 | 0.99 | > 5.12
34 | HT-1080 (fibrosarcoma, adherent) | 0.989 | > 20 | 0.811 | 1.85 | 0.866 | 5.94 | 0.973 | > 5.12
35 | HT-1197 (bladder, adherent) | 0.985 | > 20 | 0.879 | > 4 | 0.85 | 7.87 | 0.96 | > 5.12
36 | HT-1376 (bladder, adherent) | 0.983 | > 20 | 0.752 | 1.54 | 0.794 | 4.42 | 0.985 | > 5.12
37 | HTC-C3 (thyroid, adherent) | 0.969 | > 20 | 0.437 | 0.165 | 0.837 | 6.32 | 0.856 | 4.96
38 | Hep 3B2_1-7 (liver, adherent) | 0.973 | > 20 | 0.869 | 3.67 | 0.858 | 6.53 | 0.95 | > 5.12
39 | Hs633T (fibrosarcoma, adherent) | 0.986 | > 20 | 0.562 | 0.358 | 0.843 | 4.22 | 0.903 | 4.55
40 | Hs683 (glioma, adherent) | 0.988 | > 20 | 0.963 | > 4 | 0.872 | 7.76 | 0.955 | > 5.12
41 | Hs766T (pancreas, adherent) | 0.984 | > 20 | 0.776 | 2.14 | 0.827 | 7.18 | 0.979 | > 5.12
42 | Hs939-T (melanoma, adherent) | 0.98 | > 20 | 0.592 | 0.458 | 0.882 | > 8 | 0.973 | > 5.12

Row | Cell Line | AUC (EX-527) | IC50 (EX-527) [µM] | AUC (AZD6244) | IC50 (AZD6244) [µM] | AUC (AS601245) | IC50 (AS601245) [µM] | AUC (YM201636) | IC50 (YM201636) [µM]
43 | Hs940-T (melanoma, adherent) | 0.984 | > 20 | 0.976 | > 4 | 0.706 | 2.18 | 0.984 | > 5.12
44 | Hs-578-T (breast, adherent) | 0.981 | > 20 | 0.79 | 1.9 | 0.868 | > 8 | 0.968 | > 5.12
45 | HuCCT1 (biliary tract, adherent) | 0.978 | > 20 | 0.538 | 0.322 | 0.814 | 5 | 0.896 | > 5.12
46 | HuH-7 (liver, adherent) | 0.978 | > 20 | 0.94 | > 4 | 0.896 | > 8 | 0.987 | > 5.12
47 | HuO9 (osteosarcoma, adherent) | 0.981 | > 20 | 0.96 | > 4 | 0.962 | > 8 | 0.927 | > 5.12
48 | HuO-3N1 (osteosarcoma, adherent) | 0.982 | > 20 | 0.967 | > 4 | 0.561 | 0.772 | 0.953 | > 5.12
49 | HuP-T3 (pancreas, adherent) | 0.976 | > 20 | 0.625 | 0.6 | 0.929 | > 8 | 0.9 | > 5.12
50 | IA-LM (large cell lung carcinoma, adherent) | 0.983 | > 20 | 0.888 | > 4 | 0.688 | 1.81 | 0.982 | > 5.12
51 | IGR-37 (melanoma, adherent) | 0.829 | 11 | 0.148 | 0.0233 | 0.839 | 4.79 | 0.809 | 2.4
52 | IHH-4 (thyroid, semi-adherent) | 0.984 | > 20 | 0.617 | 0.489 | 0.813 | 3.29 | 0.993 | > 5.12
53 | IM-95 (stomach, adherent) | 0.986 | > 20 | 0.958 | > 4 | 0.781 | 3.54 | 0.747 | 1.74
54 | IPC-298 (melanoma, adherent) | 0.979 | > 20 | 0.162 | 0.0237 | 0.757 | 2.72 | 0.93 | > 5.12
55 | J82 (bladder, adherent) | 0.985 | > 20 | 0.914 | > 4 | 0.756 | 2.72 | 0.953 | > 5.12
56 | JEG-3 (urogenital system, adherent) | 0.985 | > 20 | 0.99 | > 4 | 0.856 | 5.48 | 0.991 | > 5.12
57 | JHH-1 (liver, adherent) | 0.985 | > 20 | 0.54 | 0.324 | 0.828 | 5.49 | 0.792 | 2.54
58 | JHH-2 (liver, adherent) | 0.985 | > 20 | 0.899 | > 4 | 0.925 | > 8 | 0.969 | > 5.12
59 | JHH-4 (liver, adherent) | 0.967 | > 20 | 0.946 | > 4 | 0.811 | 4.24 | 0.872 | 4.83
60 | JHH-6 (liver, adherent) | 0.976 | > 20 | 0.957 | > 4 | 0.855 | 6.56 | 0.903 | > 5.12
61 | JHH-7 (liver, adherent) | 0.984 | > 20 | 0.801 | 1.81 | 0.786 | 3.23 | 0.965 | > 5.12
62 | JHU-011 (head and neck, adherent) | 0.986 | > 20 | 0.934 | > 4 | 0.908 | > 8 | 0.927 | > 5.12
63 | JHU-022 (head and neck, adherent) | 0.982 | > 20 | 0.772 | 1.97 | 0.982 | > 8 | 0.872 | > 5.12

IC50 is the fitted dose that halves viability relative to control wells, and lower means more sensitive; a limit (>, <) means that the fit lies beyond the doses tested. The AUC spans the tested range (256-fold, ending at the top dose) of the same fit; it is 1 without any effect and falls as sensitivity rises. For part of these data: Any top dose called inferred comes from the curve model; the source does not state it. For part of these data: Drugs with an entry number were screened twice under separate entries, and the two screens often disagree.
